In PubChem BioAssay AID1745845 (National Center for Advancing Translational Sciences (NCATS), 2022):
“And” between values parts separate entries of the source, which are not always exact repeats. Equal entries are not always repeated. In all, about 360,000 compounds went through this assay and about 2,600 (0.72%) were called active. The shares of active, inactive and inconclusive entries below differ from those in the screen. Calls follow the shape of the dose curve; as a rule, active = well fitted inhibition curve with a large enough effect; inconclusive = small, poorly fitted or top-dose-only effect; inactive = no such curve, though single readings can be large or run the other way. A potency beside an inconclusive call is a rough fit, not a confirmed value. A structure can be active in one record and inactive in another.
% is scaled to controls: 0 for no effect and ±100 for the full control effect; potency is read from the fitted curve at half-maximal effect; tags tell the direction and shape of the fitted curve.

Test: Primary qHTS for Inhibitors of ATXN expression; also: nearly all actives have a fitted effect of over 55% in size
Details: HEK-293 ATXN2-luciferase reporter, luminescence, 24 h; activity change, negative = inhibition: at 57 µM (top of the series)
Summary of the method: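 qHTS (up to 57 uM final) was run with 24 h compound exposure of reporter cells at 37 °C. Each well was multiplexed: SteadyGlo luminescence measured ATXN2-luciferase expression after a fluorogenic Gly-Phe-AFC viability readout (25 uM final).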
With O=C(Nc1ccc2c(c1)CCCN2C(=O)c1cccs1)c1ccccc1 the Potency was “inactive and inconclusive: 39.8 µM [inhibitor, single point]”.
In the case of O=C(NCc1cccnc1)C1CCC(c2ccc(Cl)cc2)CC1 (stereo not given), the Potency is reported as inconclusive: 13.4 µM [inhibitor, partial curve, poor fit].
In the case of COc1ccc(-c2cc(-c3cccs3)c(C#N)c(SCC(=O)NCc3ccccc3)n2)cc1, the Potency is reported as inconclusive: 11.2 µM [inhibitor, partial curve, poor fit].
In the case of COc1cc(OC)c(-c2cc(C(=O)NCc3ccc(F)cc3)c3c(-c4ccccc4)[nH]nc3n2)cc1OC, the Potency is reported as inconclusive: 39.8 µM [inhibitor, single point].
With COc1ccc(CNC(=O)C[C@H]2C(=O)N(Cc3ccc(OC)cc3)C[C@@H]2Cc2ccccc2)cc1 the Potency was inconclusive: 6.31 µM [inhibitor, single point].
With COc1cccc(C(=O)NC2CCN(C(=O)N3c4ccccc4Sc4ccccc43)CC2)c1 the Potency was inconclusive: 22.4 µM [inhibitor, partial curve, poor fit].
For COc1ccc(C)cc1Nc1n[n+](-c2ccccc2)c(-c2ccc(N(C)C)cc2)s1, the Potency was inconclusive: 25.1 µM [inhibitor, single point].
For O=C(c1ccc(COc2ccc3c(c2)CCC3)o1)N1CCN(c2ccccc2)CC1, the Potency was “inactive”.
With Cc1ccccc1-c1cc(C(=O)NCc2cccc(C(F)(F)F)c2)n(CC2CC(c3cccnc3)=NO2)n1 (stereo not given) the Potency was inconclusive: 28.2 µM [inhibitor, partial curve, poor fit].
For NC(N)=N/N=C/c1ccc(OCc2ccccc2)c(OCc2ccccc2)c1, the Potency was active: 22.4 µM.
With COc1cc2nc(-c3ccc(N4CCN(C)CC4)cc3)nc(NCCN3CCOCC3)c2cc1OC the Potency was active: 0.385 µM.
For Oc1cccc(/C=N/Nc2cccc3cccnc23)c1, the activity change, negative = inhibition was inactive: 165% [at 11.3 µM].
For CCOc1ncccc1C(=O)OCc1ccc([N+](=O)[O-])cc1, the Potency was inconclusive: 8.44 µM [inhibitor, partial curve, poor fit].
With O=C1NC[C@H](Cc2ccccc2)N(C[C@H]2CCCN2C[C@H](Cc2ccccc2)N2C[C@H](Cc3ccccc3)N(CC3CCCCCC3)C(=O)C2=O)C1=O the Potency was inconclusive: 39.8 µM [inhibitor, single point].
In the case of CCOCCCNC(=S)N1CCCN(c2nc3cc(C)c(C)cc3cc2C#N)CC1, the Potency is reported as inconclusive: 9.47 µM [inhibitor, single point].
With COc1cccc(CN(C)C(=O)c2cccc(S(=O)(=O)N3CCN(c4ccccc4)CC3)c2)c1OC the Potency was inconclusive: 7.94 µM [inhibitor, partial curve].
With CCCCN(CCCC)CCC(O)c1cc2c(Cl)cc(Cl)cc2c2cc(C(F)(F)F)ccc12 (stereo not given) the Potency was “inactive and active: 31.6 µM”.
In the case of Cc1cccc(C)c1NC(=O)NC1(C(=O)N2CCOCC2)CCCCC1, the Potency is reported as “inactive”.
In the case of Cc1cnc(C(=O)OC(C)C(=O)NCc2ccccc2)cn1 (stereo not given), the Potency is reported as “inactive”.
With O=C1c2ccccc2NC(c2ccc(-c3ccc(F)cc3)o2)N1O (stereo not given) the Potency was inconclusive: 39.8 µM [inhibitor, single point].
In the case of c1ccc(CN=C(NCc2ccccc2)NCc2ccccc2)cc1, the Potency is reported as inconclusive: 35.5 µM [inhibitor, single point].
In the case of CCOC(=O)c1ccc(NC(=O)Cn2nc(SC)c(S(=O)(=O)c3ccc(Cl)cc3)c2N)cc1, the Potency is reported as inconclusive: 35.5 µM [inhibitor, single point].
In the case of CC1=C(C(=O)N(C)C)CC(CC(=O)NCc2cccc3ccccc23)C(=O)N1CCC1=CCCCC1 (stereo not given), the Potency is reported as “inactive”.
For O=C(CSc1nc2ncc(Br)cc2[nH]1)Nc1ccccc1-c1ccccc1, the Potency was inconclusive: 35.5 µM [inhibitor, partial curve, poor fit].
With Cc1c(NC(=O)Nc2ccc(Cl)c(Cl)c2)sc(=S)n1C the Potency was inconclusive: 39.8 µM [inhibitor, single point].
For Cc1cccc(NC(=S)N(c2ccccc2)C(C)C)c1C, the Potency was “inactive”.
For Cc1cc(NCc2ccccn2)n2nc(C)c(-c3ccc(Cl)cc3)c2n1, the Potency was inconclusive: 33.6 µM [inhibitor, single point].
For O=c1c2sc3ccccc3c2n(Cc2ccccc2F)c(=O)n1Cc1ccccc1, the Potency was “inactive”.
For CC(C)(C)OC(=O)NCCCCCNC(=O)c1nc[nH]c1C(=O)NCCCCCNC(=O)OC(C)(C)C, the Potency was active: 22.4 µM.
For CCC(C)Sc1ccc([C@@H]2[C@@H]3C(=O)N(C)C(=O)[C@@H]3[C@]3(C(=O)OC)CCCCN23)cc1 (stereo not given in full), the Potency was “inactive”.
In the case of O=C(c1cccs1)c1no[n+]([O-])c1C(=O)c1cccs1, the Potency is reported as inconclusive: 35.5 µM [inhibitor, single point].
In the case of NC(=O)c1oc2ccccc2c1NC(=O)c1ccc([N+](=O)[O-])o1, the Potency is reported as inconclusive: 14.1 µM [inhibitor, partial curve, poor fit].
With Cc1ccc(O)c(N=NC2=C(O)CC(C)(C)CC2=O)c1 the Potency was inconclusive: 6.31 µM [inhibitor, partial curve].
For COc1ccc(CCNC(=O)c2[nH]c(C)c(C(C)=O)c2C)cc1OC, the Potency was “inactive”.
For Cn1c(N/N=C/c2cc3ccccc3nc2Cl)nc2ccccc21, the Potency was “inactive”.
For CCCC[n+]1c(C)sc2ccc(C)cc21, the Potency was “inactive”.
For CN1CCN(c2ccccc2NC(=S)NC(=O)c2cc3ccccc3o2)CC1, the Potency was inconclusive: 39.8 µM [inhibitor, single point].
For Cc1cc(C)nc(NC(=NCc2ccc3c(c2)OCO3)NC(=O)Nc2ccccc2)n1, the Potency was “inactive”.
With CCN1C(=O)c2ccccc2Sc2ccc(NC(=O)COc3ccc(Cl)cc3)cc21 the Potency was inconclusive: 39.8 µM [inhibitor, single point].
With O=C(C1CCCN(S(=O)(=O)c2cccc3cccnc23)C1)N1CCN(c2ccc(F)cc2)CC1 (stereo not given) the Potency was inconclusive: 31.6 µM [inhibitor, partial curve, poor fit].
With CCOC(=O)C1=C(C)NC(C)=C(C(=O)OCC)C1c1ccccc1/C=C/C(=O)OC(C)(C)C the Potency was active: 35.5 µM.
With CSc1cccc(NC(=O)C2CCCN(c3ncnc4c3nc3n4CCCCC3)C2)c1 (stereo not given) the Potency was inconclusive: 22.4 µM [inhibitor, single point].
In the case of Cn1c(=O)n(-c2ccc(C(C)(C)C#N)cc2)c2c3cc(-c4cnc5ccccc5c4)ccc3ncc21, the Potency is reported as inconclusive: 2.73 µM [inhibitor, partial curve].
For COc1ccc(C[C@H]2CN3C(=NC[C@@H]3C(C)C)N2C[C@H](C)NC(=O)c2ccc(C)c(Br)c2)cc1, the Potency was inconclusive: 15.8 µM [inhibitor, partial curve, poor fit].
In the case of COc1ccccc1C(=O)NC1CCN(C(=S)NCCc2ccccc2)CC1, the Potency is reported as “inactive”.
For CS(=O)(=O)Nc1ccccc1C(=O)Nc1cc(Cl)cc(Cl)c1, the Potency was active: 22.4 µM.
For Cc1cc(C)n(CCCN2CCC(C(=O)Nc3cccc(-c4cccc(F)c4)c3)CC2)n1, the Potency was inconclusive: 31.6 µM [inhibitor, single point].
In the case of COc1ccc(OC)c(S(=O)(=O)NCCc2cn3ccsc3n2)c1, the Potency is reported as “inactive”.
With COc1ccc(-c2ccc3c(N4CCOC[C@H]4C)nc(N4CCOC[C@H]4C)nc3n2)cc1CO the Potency was inconclusive: 5.44 µM [inhibitor, partial curve, poor fit].
With Cc1ccc(NC(=S)NC(=O)C2CC2)c(C)c1 the Potency was “inactive”.
For O=S(=O)(C/C(=C/CO)S(=O)(=O)c1ccccc1)c1ccccc1, the Potency was inconclusive: 28.2 µM [inhibitor, single point].
For CCOc1cc(C)c(-c2onc(C(F)(F)F)c2-c2csc(C)n2)c(O)c1, the Potency was inconclusive: 28.2 µM [inhibitor, single point].
In the case of COc1cccc(C(=O)Nc2ccccc2NC(=O)c2cccc(OC)c2)c1, the Potency is reported as “inactive”.
For NC(Cc1ccccc1)c1csc(NC(=O)Nc2ccccc2Oc2ccccc2)n1 (stereo not given), the Potency was inconclusive: 39.8 µM [inhibitor, single point].
For O=c1c2ccccc2sn1-c1ccccc1F, the Potency was inconclusive: 39.8 µM [inhibitor, single point].
For CCCc1nc2c3ccccc3ccn2c1Cc1cccc(Cl)c1, the Potency was “inactive”.
In the case of CCCNC(=S)Nc1cc2oc3ccccc3c2cc1OC, the Potency is reported as inconclusive: 39.8 µM [inhibitor, single point].
With CC(C)OCCCNc1ncnc2c1[nH]c1ccc(F)cc12 the Potency was inconclusive: 10 µM [inhibitor, partial curve, poor fit].
With O=C(/C=C/c1ccccc1)N/C(=C/c1ccccc1)C(=O)N1CCCCC1 the Potency was inconclusive: 39.8 µM [inhibitor, partial curve, poor fit].
For O=C(Nc1ccc(-c2nc3cc(NC(=O)c4ccccc4Cl)ccc3o2)cc1)c1ccccc1Cl, the Potency was inconclusive: 3.16 µM [inhibitor, partial curve, poor fit].
In the case of Cc1nn(Cc2ccc(Cl)c(Cl)c2)c(C)c1NC(=O)c1cc(C2CC2)on1, the Potency is reported as inconclusive: 31.6 µM [inhibitor, single point].
For CSCC[C@H](NC(=O)c1ccc2ccccc2c1)C(=O)N1CCC2(CC1)NCCc1[nH]cnc12, the Potency was “inactive”.
For CCOC(=O)c1c(CN2CCNCC2)nc2ccc(Cl)cc2c1-c1ccccc1, the Potency was inconclusive: 25.1 µM [inhibitor, single point].
In the case of O=C(CCc1nc2cccnc2n1Cc1cccs1)Nc1cccc(C(F)(F)F)c1, the Potency is reported as inconclusive: 39.8 µM [inhibitor, single point].
In the case of CN(C(=O)c1cccc(NC(=O)Cc2ccc(NC(=O)C3CCN(C(=O)c4ccccc4)CC3)cc2)c1)C1CCCC1, the Potency is reported as “inactive”.
